{
  "source": "PubChem BioAssay AID1768",
  "about": "(National Center for Advancing Translational Sciences (NCATS), 2009)",
  "note": "Out of some 270,000 compounds screened, about 620 (0.23%) were called active. Inconclusive means that the source gave no clear call. Such entries were picked first, then a sample of the others. The call rests on the fitted dose curve; in most records, active means well fitted inhibition curve with a large enough effect in the polarisation, with a control signal flat (not every such curve was filed as active); inconclusive means small, poorly fitted or top-dose-only effect, or effect the other way, or a change in a side signal; inactive means no such curve, though single readings can be large or run the other way; the % refers to the polarisation. Potencies of inconclusive entries are doubtful fits and often do not repeat. “Side channel” marks fits to a control or component signal instead of the main read-out. Potency means the concentration at half of the fitted maximal effect; tags describe the fitted curve by direction and shape or compound fluorescence and quenching.",
  "data": [
    {"target": "Menin (Homo sapiens) (UniProt O00255)", "sequence (O00255 whole entry, looked up)": "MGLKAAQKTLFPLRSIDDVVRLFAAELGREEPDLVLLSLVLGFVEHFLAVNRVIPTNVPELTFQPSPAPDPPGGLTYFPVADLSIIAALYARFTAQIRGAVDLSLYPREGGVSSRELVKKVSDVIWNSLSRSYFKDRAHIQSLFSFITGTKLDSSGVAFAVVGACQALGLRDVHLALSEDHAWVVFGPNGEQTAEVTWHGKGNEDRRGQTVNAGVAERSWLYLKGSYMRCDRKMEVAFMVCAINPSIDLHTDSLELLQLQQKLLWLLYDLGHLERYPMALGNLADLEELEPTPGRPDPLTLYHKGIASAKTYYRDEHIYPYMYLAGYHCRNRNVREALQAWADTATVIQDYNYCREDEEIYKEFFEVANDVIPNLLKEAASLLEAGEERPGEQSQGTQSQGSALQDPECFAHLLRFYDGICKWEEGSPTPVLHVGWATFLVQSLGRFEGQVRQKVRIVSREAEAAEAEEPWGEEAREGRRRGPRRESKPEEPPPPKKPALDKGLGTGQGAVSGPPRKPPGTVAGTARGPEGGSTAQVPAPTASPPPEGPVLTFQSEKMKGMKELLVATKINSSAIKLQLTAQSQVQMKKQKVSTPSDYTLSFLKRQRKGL", "test": "qHTS Assay for Inhibitors Targeting the Menin-MLL Interaction in MLL Related Leukemias: Competition With Texas Red Labeled MLL-derived Mutant Peptide; on FP activity change, negative = inhibition: % of control where 0% means no effect", "conditions": "fluorescence polarization; FP activity change, negative = inhibition: at 61.6 µM (top of the series)", "values": [
      {"smiles": "O=C(CSc1ccc(-c2ccc3c(c2)OCO3)nn1)Nc1nccs1", "Potency": "inconclusive: 39.8 µM [fluorescent, side channel, single point]"},
      {"smiles": "COc1ccc(C(=O)NCc2ccc3c(c2)cc(C)n3C)cc1OC", "Potency": "inconclusive: 17.8 µM [fluorescent, side channel, partial curve]"},
      {"smiles": "CCS(=O)(=O)C1=NN2C(=N)/C(=C\\c3ccc(OC(=O)c4ccco4)c(Br)c3)C(=O)N=C2S1", "Potency": "inconclusive: 15.8 µM [quencher, side channel, partial curve]"},
      {"smiles": "COc1ccc(-c2csc(-c3cccs3)n2)c(OC)c1", "Potency": "inconclusive: 14.1 µM [quencher, side channel, partial curve]"},
      {"smiles": "COc1ccc(-c2csc(NC(=O)Cc3cccc4ccccc34)c2C(=O)O)cc1", "Potency": "inconclusive: 15.8 µM [quencher, side channel, partial curve]"},
      {"smiles": "COc1cccc(C(C(=O)NC(C)(C)C)N(CCC(C)C)C(=O)CCC(=O)Nc2cc(C)on2)c1OC", "note": "(configuration not stated)", "Potency": "inconclusive: 2.24 µM [fluorescent, side channel, full curve]"},
      {"smiles": "COc1cc2[nH]c(=O)n(Cc3ccc(C(=O)NCC4CCCO4)cc3)c(=O)c2cc1OC", "note": "(configuration not stated)", "FP activity change, negative = inhibition": "inactive: -2.58%"},
      {"smiles": "CCCCN(C(=O)CCC(=O)Nc1cc(C)on1)C(C(=O)NC1CCCC1)c1ccccc1OCC", "note": "(configuration not stated)", "Potency": "inconclusive: 5.62 µM [fluorescent, side channel, partial curve]"},
      {"smiles": "O=C(N/N=C/C1C(c2ccccc2)C1(Cl)Cl)c1cccc(Cl)c1", "note": "(configuration not stated)", "Potency": "inconclusive: 25.1 µM [inhibitor, partial curve]"},
      {"smiles": "S=C(Nc1ccccc1Cl)N(Cc1ccccc1)Cc1ccccn1", "FP activity change, negative = inhibition": "inactive: 18.6%"},
      {"smiles": "CC(C)C(=O)Nc1ncc(Cc2ccc(Cl)cc2)s1", "Potency": "inconclusive: 11.2 µM [fluorescent, side channel, partial curve]"},
      {"smiles": "COc1ccc(/C=N/NC(=O)c2nnn(-c3nonc3N)c2-c2cccc(OC)c2)cc1", "Potency": "inconclusive: 35.5 µM [quencher, side channel, single point]"},
      {"smiles": "CCOc1ccc(C(=O)Nc2cccc3ncccc23)cc1Br", "Potency": "inconclusive: 28.2 µM [fluorescent, side channel, single point]"},
      {"smiles": "CN(C)S(=O)(=O)Oc1cccc(C(=O)Nc2ccc(Cl)cc2)c1", "Potency": "inconclusive: 22.4 µM [quencher, side channel, partial curve]"},
      {"smiles": "O=C(CN1C(=O)/C(=C/c2ccccc2)SC1=S)NNC(=O)c1ccccc1O", "Potency": "inconclusive: 20 µM [quencher, side channel, partial curve]"},
      {"smiles": "CCCn1c(=N)n(CC(=O)c2ccc(Cl)c(Cl)c2)c2ccccc21", "Potency": "inconclusive: 11.2 µM [fluorescent, side channel, partial curve]"},
      {"smiles": "COc1ccc(CCCc2nnc(SCC(=O)NN)o2)c(C)c1", "Potency": "inconclusive: 20 µM [fluorescent, side channel, partial curve]"},
      {"smiles": "N#CCC(=O)Nc1ccc(C(=O)OCC(=O)Nc2ccccc2Sc2ccccc2)cc1", "Potency": "inconclusive: 1.78 µM [inhibitor, partial curve]"},
      {"smiles": "COc1ccc(NC(=O)CSc2nc(-c3ccc(C)cc3)cc(C(F)(F)F)c2C#N)cc1", "Potency": "inconclusive: 2.24 µM [inhibitor, full curve]"},
      {"smiles": "NS(=O)(=O)c1ccc(NC(=S)N2CCN(Cc3ccc(Cl)c(Cl)c3)CC2)cc1", "Potency": "inconclusive: 20 µM [quencher, partial curve]"},
      {"smiles": "COc1c(Br)cc(Br)cc1/C=N/n1c(C)nnc1C", "Potency": "inconclusive: 0.708 µM [inhibitor, full curve, poor fit]"},
      {"smiles": "Fc1ccc(-c2cnn3c(-c4cccs4)ccnc23)cc1", "Potency": "inconclusive: 22.4 µM [inhibitor, single point]"},
      {"smiles": "c1ccc(Cc2noc(CN3CCN(C4CCc5ccccc5C4)CC3)n2)cc1", "note": "(configuration not stated)", "FP activity change, negative = inhibition": "inactive: -17.8%"},
      {"smiles": "CC1(CCC(=O)N2CCCC(N3CCN(c4cccc(C(F)(F)F)c4)CC3)C2)CC1", "note": "(configuration not stated)", "Potency": "inconclusive: 17.8 µM [fluorescent, side channel, partial curve, poor fit]"},
      {"smiles": "Cn1c(=O)c2c(nc(NCCO)n2CCCc2ccccc2)n(C)c1=O", "Potency": "inconclusive: 1.78 µM [inhibitor, partial curve]"},
      {"smiles": "O=C(COc1ccccc1)NNc1c2ccccc2nc2ccccc12", "Potency": "inconclusive: 31.6 µM [quencher, side channel, partial curve]"},
      {"smiles": "O=C(OCc1nnc(-c2ccccc2)o1)c1cccnc1Cl", "Potency": "inconclusive: 7.08 µM [inhibitor, partial curve]"},
      {"smiles": "COc1ccc(OC)c(C2C(C(=O)c3cc4ccccc4o3)=C(O)C(=O)N2c2cc(C)on2)c1", "note": "(configuration not stated)", "Potency": "inconclusive: 28.2 µM [quencher, side channel, single point]"},
      {"smiles": "Cc1ccc2c(=O)cc(C(=O)Nc3ccc(S(=O)(=O)Nc4onc(C)c4C)cc3)oc2c1", "Potency": "inconclusive: 17.8 µM [quencher, side channel, partial curve]"},
      {"smiles": "Fc1ccc(/C=N/c2c(-c3ccc(F)cc3)nc3n2CCS3)cc1", "Potency": "inconclusive: 15.8 µM [quencher, side channel, partial curve]"},
      {"smiles": "C=C1SC(=Nc2ccccc2Cl)N(C(=O)c2sc3ccccc3c2Cl)C12CCCCC2", "Potency": "inconclusive: 15.8 µM [fluorescent, side channel, partial curve]"},
      {"smiles": "Cc1cccc(-c2nnc(SCC(=O)c3ccc(O)cc3O)n2C)c1", "Potency": "inconclusive: 35.5 µM [fluorescent, side channel, single point]"},
      {"smiles": "Cc1cccc(C)c1OCc1cc(C(=O)N(Cc2c(C)nn(C)c2C)C2CC2)no1", "Potency": "inconclusive: 20 µM [inhibitor, partial curve]"},
      {"smiles": "Cc1ccc(C(=O)Nc2nnc(NC(=S)Nc3ccccc3)s2)cc1", "Potency": "inconclusive: 3.16 µM [quencher, side channel, full curve]"},
      {"smiles": "CC(=O)Nc1nc(C)c(-c2csc(Nc3ccccn3)n2)s1", "Potency": "inconclusive: 14.1 µM [quencher, side channel, partial curve]"},
      {"smiles": "CCc1cc2c(nc1CC)CCN(CC/C(C)=N/O[C@@H](C)c1cc(-c3c(C)cc(C)cc3C)no1)C2", "Potency": "inconclusive: 8.91 µM [fluorescent, side channel, partial curve]"},
      {"smiles": "N#CC1=C(N)Oc2ccc3ccc(O)cc3c2C1c1ccsc1", "note": "(configuration not stated)", "FP activity change, negative = inhibition": "inactive: 35.4%"},
      {"smiles": "CC(C)(C)c1nc(SCC(=O)N2CC(=O)Nc3ccccc32)c2ccccc2n1", "Potency": "inconclusive: 20 µM [fluorescent, side channel, partial curve]"},
      {"smiles": "O=c1c2c([N+](=O)[O-])cc([N+](=O)[O-])cc2sn1Cc1ccccc1", "Potency": "inconclusive: 28.2 µM [quencher, side channel, single point]"},
      {"smiles": "COc1ccccc1NC(=O)CSc1nc2sc(C)c(C)c2c(=O)n1C", "Potency": "inconclusive: 25.1 µM [inhibitor, partial curve]"},
      {"smiles": "COC(=O)Cc1c(C)[nH]n(-c2cc(Cl)cc(Cl)c2)c1=O", "Potency": "inconclusive: 7.94 µM [quencher, side channel, partial curve]"},
      {"smiles": "Cc1ccc(C)c(OCC(=O)Nc2nc3ccc([N+](=O)[O-])cc3s2)c1C", "Potency": "inconclusive: 14.1 µM [quencher, side channel, partial curve]"},
      {"smiles": "COc1cc(/C=N\\NC(=O)c2ccc(Cn3cc(Br)c([N+](=O)[O-])n3)o2)cc(OC)c1O", "Potency": "inconclusive: 22.4 µM [quencher, side channel, partial curve]"},
      {"smiles": "c1ccc2c(c1)ncn2Cc1nnc2sc(-c3ccc4c(c3)OCO4)nn12", "FP activity change, negative = inhibition": "inactive: -4.86%"},
      {"smiles": "Cc1ccccc1NC(=S)N(C)CCc1ccccn1", "Potency": "inconclusive: 0.708 µM [inhibitor, full curve, poor fit]"},
      {"smiles": "NC1=NC(=O)C(Cc2cc(Cl)ccc2Cl)S1", "note": "(configuration not stated)", "Potency": "inconclusive: 22.4 µM [fluorescent, side channel, single point]"},
      {"smiles": "CCCCNC(=O)CNC(=S)N(Cc1ccccc1F)C1CCCCC1", "Potency": "inconclusive: 17.8 µM [inhibitor, partial curve]"},
      {"smiles": "CC(C)C(=O)Nc1ccc(Nc2ccccc2)cc1", "Potency": "inconclusive: 25.1 µM [quencher, side channel, single point]"},
      {"smiles": "C=CCn1c(=O)n(C2OC(CO)C(O)C2O)c2nc(N)[nH]c(=O)c21", "note": "(configuration not stated)", "Potency": "inconclusive: 10 µM [quencher, side channel, partial curve]"},
      {"smiles": "CCCCNC(=O)C1CCC(CNS(=O)(=O)c2c(C)cc(C)cc2C)CC1", "note": "(configuration not stated)", "Potency": "inconclusive: 10 µM [inhibitor, partial curve]"},
      {"smiles": "c1cc(CN2CCCCC2)cc(OCCCNc2nc3ccccc3s2)c1", "Potency": "inconclusive: 8.91 µM [fluorescent, side channel, partial curve]"},
      {"smiles": "Cc1cccc(OCC(=O)NNc2c3ccccc3nc3ccccc23)c1", "Potency": "inconclusive: 25.1 µM [quencher, side channel, single point]"},
      {"smiles": "Cc1nnc(SCc2cccs2)[nH]c1=O", "FP activity change, negative = inhibition": "inactive: 12.1%"},
      {"smiles": "Oc1c(CN2CCN(c3ccccc3)CC2)cc(Br)c2cccnc12", "Potency": "inconclusive: 3.98 µM [inhibitor, full curve, poor fit]"},
      {"smiles": "CCN(CC)c1ccc(/C=N/NC(=O)Cc2cccs2)c(O)c1", "FP activity change, negative = inhibition": "inactive: -4.43%"},
      {"smiles": "COc1ccc(CNc2nc(-c3cccc(C#N)c3)nc3ccccc23)c(OC)c1", "Potency": "inconclusive: 1.58 µM [quencher, side channel, full curve, poor fit]"},
      {"smiles": "CNC(=O)CSc1nnc(-c2ccncc2)n1Cc1ccccc1", "FP activity change, negative = inhibition": "inactive: -16.6%"}
    ]}
  ]
}
